In all, about 330,000 compounds went through this assay and about 4,200 (1.3%) were called active. The inconclusive results got no clear call from the source; some entries with a clear call stand among them for comparison. The call rests on the fitted dose curve; in most records, active means well fitted activation curve with a large enough effect; inconclusive means small, poorly fitted or top-dose-only effect; inactive means no such curve, though single readings can be large or run the other way. Where the call is inconclusive, the potency comes from a doubtful curve fit.
Test: qHTS screen for small molecules that induce genotoxicity in human embryonic kidney (HEK293T) cells expressing luciferase-tagged ELG1; further: nearly all actives have a fitted effect of over 60% in size
Details: HEK293T ELG1-luciferase reporter, luminescence, 16 h; series mostly up to 46 µM
How it was run: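 ELG1-luciferase HEK293T cells, 2,000/well; compound pinned in; 16 hr, 37 °C, 5% CO2; ONE-Glo, 30 min RT; luminescence on CCD imager.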
Potency means the concentration at half of the fitted maximal effect; tags describe the fitted curve by direction and shape.

Row | SMILES | Potency
1 | Cc1ccc(-c2cc(N)on2)cc1 | inconclusive: 18.4 µM [activator, partial curve, poor fit]
2 | C/C(=N\NC(=O)COc1ccccc1F)c1cc2ccccc2o1 | inconclusive: 25.9 µM [activator, partial curve, poor fit]
3 | Cn1cccc1C(=O)C(=O)Nc1ccccc1 | inconclusive: 1.84 µM [activator, full curve]
4 | CCOC(=O)c1cnc2ccc(C(=O)OC)cc2c1Nc1ccc(C(=O)O)cc1 | inconclusive: 18.3 µM [activator, partial curve, poor fit]
5 | CNc1ccccc(-c2ccc3cc4c(cc3n2)OCO4)c1=O | inconclusive: 20.6 µM [activator, partial curve]
6 | COCCn1c(=O)[nH]c2cc(C(=O)NCCN3CCN(c4ccccc4)CC3)ccc2c1=O | inactive
7 | Oc1c(C=NCc2ccncc2)sc2ccccc12 | inconclusive: 23.1 µM [activator, partial curve, poor fit]
8 | CCOC(=O)C1(Cc2cccc(OC)c2)CCN(Cc2ccccc2OC)CC1 | inactive
9 | Cc1cnc(NC(=O)c2ccc(Cl)nc2)s1 | inconclusive: 10.3 µM [activator, partial curve]
10 | CCc1nn2c(=O)cc(COC(=O)c3ccc(SC)cc3OC)nc2s1 | inactive
11 | CN(C)c1ccnc2sc(C(=O)c3ccccc3)c(N)c12 | inconclusive: 8.2 µM [activator, partial curve]
12 | COc1ccc(/C(C)=N/NC(=O)C2CC2)cc1 | inconclusive: 25.9 µM [activator, partial curve, poor fit]
13 | C=CCSc1nncn1/N=C/c1ccc(OC)cc1 | active: 20.6 µM
14 | COc1ccc(CNc2nc3nc(C)c(Cl)c(C)n3n2)cc1 | inconclusive: 16.4 µM [activator, partial curve, poor fit]
15 | N#Cc1ccc(CSc2ccccn2)c(Cl)c1 | inactive
16 | COc1ccc([N+](=O)[O-])cc1C(=O)Nc1ccc(Cc2ccncc2)cc1 | inconclusive: 23.1 µM [activator, partial curve, poor fit]
17 | Cc1ccc(C(=O)Nc2nc3ccccc3s2)s1 | inconclusive: 0.0731 µM [activator, partial curve, poor fit]
18 | O=C(NCCc1ccccn1)c1cc(-c2cccc3ccccc23)nc2ccccc12 | inactive
19 | Cn1c(N=Nc2ccccc2)nc2ccccc21 | active: 1.16 µM
20 | COc1ccc(C(C(=O)NC2CCCC2)N(C(=O)Cc2cccs2)C2CC2)cc1OC (stereo unspecified) | inactive
21 | C=CCOc1ccc2nc(NC(=O)OC)[nH]c2c1 | active: 9.2 µM
22 | CC1CCc2c(sc(NC(=O)c3nc4ncccn4n3)c2C#N)C1 (stereo unspecified) | inconclusive: 3.66 µM [activator, full curve]
23 | COc1ccc(CCn2c(=O)[nH]c3cc(C(=O)N4CCN(c5ccccn5)CC4)ccc3c2=O)cc1OC | inconclusive: 25.9 µM [activator, partial curve, poor fit]
24 | CC1CCCCN1C(=O)CCn1c(=O)oc2ccccc21 (stereo unspecified) | inactive

Row | SMILES | Potency
25 | C=CCn1cccc(C(=O)Nc2ccc(C)c(Cl)c2)c1=O | inconclusive: 20.6 µM [activator, single point]
26 | CCN(Cc1ccccc1)C(=O)COc1cc(=O)n(CC)c2ccccc12 | inconclusive: 29.1 µM [activator, partial curve, poor fit]
27 | CC1(C)CC(NS(=O)(=O)c2ccc(Cl)cc2)CC(C)(C)N1 | inactive
28 | Cc1nc(NCc2ccccc2)sc1C(=O)Nc1ccccc1 | inconclusive: 20.6 µM [activator, partial curve, poor fit]
29 | O=C(NCCc1ccccc1)C(=O)NCC1OCCN1S(=O)(=O)c1ccc(F)cc1 (stereo unspecified) | inactive
30 | CN(Cc1ccon1)C(=O)c1ccc2nc(Cc3cccc(Cl)c3)oc2c1 | inactive
31 | CN(C)c1ccc(N/C=C/C(=O)c2ccccc2)cc1 | active: 0.731 µM
32 | CC(C)c1ccc(C(=O)NCCCc2ccccc2)cc1 | active: 18.4 µM
33 | CCc1ccc(-c2nc(C(N)=O)c3[nH]c(=O)n(-c4ccccc4OC)c3n2)cc1 | inconclusive: 16.4 µM [activator, partial curve]
34 | CCOC(=O)C1(Cc2cccc(OC)c2)CCN(Cc2cccnc2)CC1 | inconclusive: 23.1 µM [activator, single point]
35 | COc1cccc(C(=O)Nc2ccc(NC(C)=O)cn2)c1 | inconclusive: 16.4 µM [activator, partial curve, poor fit]
36 | CCOc1ccc(/C=N/NC(=O)c2ccccc2O)cc1CN1CC2CC(C1)c1cccc(=O)n1C2 (stereo unspecified) | inactive
37 | O=C(CCS(=O)(=O)Cc1ccccc1)Nc1nc2c(s1)CCCC2 | inconclusive: 32.6 µM [activator, partial curve, poor fit]
38 | CC(=O)Nc1ccc(NC(=O)C(C)OC(=O)C2(c3ccc(F)cc3)CCCC2)cc1 (stereo unspecified) | inactive
39 | COc1ccc(Cl)cc1NC(=O)CN(C)CC(=O)Nc1ccccc1N1CCOCC1 | inactive
40 | Cc1nnc(SCc2ccc(Cl)cc2Cl)[nH]c1=O | inconclusive: 25.9 µM [activator, single point]
41 | CC(C)(C)c1csc(NC(=O)C2COc3ccccc3O2)n1 (stereo unspecified) | inconclusive: 3.26 µM [activator, full curve, poor fit]
42 | CCOC(=O)Cn1c(CN2CCc3ccccc3C2)nc2c1c(=O)n(C)c(=O)n2C | inconclusive: 13 µM [activator, partial curve, poor fit]
43 | COc1ccc(C(=O)Nc2ccc3oc(-c4cccc(Cl)c4)cc(=O)c3c2O)cc1 | inconclusive: 32.6 µM [activator, partial curve, poor fit]
44 | O=C(Nc1cnc2ccccc2c1)c1ccco1 | inconclusive: 2.31 µM [activator, full curve]
45 | c1ccc(CNc2ccc3c(c2)ncn3C2CCCCC2)nc1 | inactive
46 | Cc1ccc(-c2cc3nc(-c4ccccc4)cc(N)n3n2)cc1 | inconclusive: 1.64 µM [activator, full curve]
47 | Cn1cc(/C=C/c2nc3ccccc3c(=O)n2-c2cccc([N+](=O)[O-])c2)c2ccccc21 | inconclusive: 16.4 µM [activator, partial curve, poor fit]
48 | Cc1noc(C)c1CCC(=O)N1CCCC(CO)(Cc2ccccc2)C1 (stereo unspecified) | inconclusive: 18.3 µM [activator, partial curve, poor fit]

Row | SMILES | Potency
49 | Cc1occc1C(=O)NNC(=O)c1ccccc1C(=O)O | inconclusive: 3.66 µM [activator, full curve]
50 | CSc1nsc(SCC(=O)Nc2nc3ccc(C)cc3s2)n1 | inconclusive: 6.51 µM [activator, partial curve, poor fit]
51 | C/C(=N\NC(=O)c1ccc(CSc2nncn2C)cc1)c1cccs1 | inconclusive: 13 µM [activator, partial curve]
52 | Cc1cc2cc(C=C(C#N)C#N)c(Cl)nc2cc1C | inconclusive: 29.1 µM [activator, single point]
53 | Cc1c(C(=O)Nc2ccc3c(c2)OCO3)oc2ccccc12 | active: 2.59 µM
54 | Cc1cc(C(=O)N/N=C/c2ccccc2[N+](=O)[O-])c(C)o1 | inconclusive: 10.3 µM [activator, partial curve, poor fit]
55 | CC(C)CNC(=O)c1cc(-c2ccc3c(c2)OCO3)on1 | inconclusive: 2.31 µM [activator, full curve]
56 | CCO[C@@H]1OC(C(=O)NC2CC2)=C[C@H](C(C)(C)C)[C@H]1CCCO | inactive
57 | CC(=O)c1ccc(N2CCCC2)c(F)c1 | inconclusive: 23.1 µM [activator, partial curve]
58 | Cc1ccc(-c2n[nH]c(Cc3ccccc3)n2)cc1 | inconclusive: 20.6 µM [activator, partial curve]
59 | O=S(=O)(Nc1ccccc1N1CCOCC1)c1cccs1 | inconclusive: 18.3 µM [activator, partial curve, poor fit]
60 | CCOC(=O)C(CC)/C(C)=N\NC(=O)c1ccccc1O (stereo unspecified) | inconclusive: 32.6 µM [activator, partial curve, poor fit]
61 | Cc1cc2oc3c(c(=O)c2cc1C)C(c1ccc(C(C)C)cc1)N(CCCN1CCOCC1)C3=O (stereo unspecified) | inactive
62 | O=C(O)C1C2C=CC(C2)C1C(=O)Nc1ccc2c(c1)OCCO2 (stereo unspecified) | inconclusive: 16.4 µM [activator, partial curve, poor fit]
63 | COc1ccc2c(c1OC)C(=O)OC2Nc1nc(-c2ccc(-c3ccccc3)cc2)cs1 (stereo unspecified) | active: 3.26 µM
64 | Cc1ccc2c(c1)CCCN2C(=O)Nc1ccc2c(c1)OCO2 | inconclusive: 20.6 µM [activator, single point]
65 | COC(CNC(=O)Cn1nc(Cc2ccncc2)c2ccccc2c1=O)OC | inactive
66 | OCCN(/C=N/c1nc(-c2ccc(Br)cc2)cs1)CCO | active: 20.6 µM
67 | CCC1CSC(Nc2ccc(C(=O)/C=C/c3ccc(Br)cc3)cc2)=N1 (stereo unspecified) | inconclusive: 32.6 µM [activator, partial curve, poor fit]
68 | O=C(Nc1ccc(NC(=O)c2ccccc2Br)cc1)c1ccccc1 | inconclusive: 12.6 µM [activator, single point]
69 | NNC(=O)c1cccc(COc2ccc3c(c2)CCC3)c1 | inconclusive: 0.259 µM [activator, full curve]
70 | CCOc1ccc(C(=O)Nc2ccccc2C(=O)O)cc1 | inconclusive: 2.31 µM [activator, partial curve]
71 | CC(C)c1ccc(C(=O)NCCCN2CCOCC2)cc1 | inconclusive: 20.6 µM [activator, partial curve, poor fit]

Source: PubChem BioAssay AID504466 (National Center for Advancing Translational Sciences (NCATS), 2011)
